Hit rate of the full screen: of about 48,000 compounds, about 550 (1.1%) were called active. Another 4% or so got no clear call; they are omitted. Rule as the data show it: active = potency below about 15 µM; inconclusive = mostly about 16 µM to 33 µM; inactive = weaker than that. The list shows a part of the results.
Each compound was assayed against Lysosomal acid glucosylceramidase (Homo sapiens) (UniProt P04062) (assay: Glucocerebrosidase). Conditions: purified enzyme, resorufin glucoside fluorescence (screen aimed at inhibitors), 20 min.
Sequence of UniProt P04062 (P04062 whole entry, looked up): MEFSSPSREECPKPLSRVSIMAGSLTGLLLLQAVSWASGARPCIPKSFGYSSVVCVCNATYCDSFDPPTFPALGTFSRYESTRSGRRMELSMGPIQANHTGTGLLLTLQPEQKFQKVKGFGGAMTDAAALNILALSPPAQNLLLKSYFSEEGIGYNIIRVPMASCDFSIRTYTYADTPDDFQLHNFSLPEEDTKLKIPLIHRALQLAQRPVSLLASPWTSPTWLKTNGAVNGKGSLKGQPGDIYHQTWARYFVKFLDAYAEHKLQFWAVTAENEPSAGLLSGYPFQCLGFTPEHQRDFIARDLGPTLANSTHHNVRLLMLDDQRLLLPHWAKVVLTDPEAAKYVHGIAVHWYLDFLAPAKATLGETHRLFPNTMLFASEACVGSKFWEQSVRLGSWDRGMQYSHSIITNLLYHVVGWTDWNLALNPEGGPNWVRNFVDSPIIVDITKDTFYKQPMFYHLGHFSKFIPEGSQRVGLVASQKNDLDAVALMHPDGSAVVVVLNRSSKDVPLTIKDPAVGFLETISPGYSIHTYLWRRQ
How it was run: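 Wild-type enzyme at 0.2 nM final in 50mM citric acid/KH2PO4, 10mM sodium taurocholate, 0.01% tween-20, pH 5.9, with resorufin beta-D-glucopyranoside at 30 uM final. Compounds titrated, 20 min at RT, red fluorescence read; AC50 from titration.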
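Also: the screen sought inhibitors.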
Potency is read from the fitted curve at half-maximal effect.

| Compound | Potency |
| --- | --- |
| CC(=O)NC1=NC(=O)/C(=C/N2CCCCC2)S1 | inactive: > 76.9 µM |
| N#CC(C(=O)Nc1ccc(Cl)cc1)=C1Nc2ccccc2N1 | inactive: > 76.9 µM |
| CC(OC(=O)CN(C)S(=O)(=O)c1ccc(Cl)cc1)C(=O)Nc1ccc(N2CCOCC2)cc1 (stereo unspecified) | inactive: > 76.9 µM |
| Cc1oc(-c2ccccc2)nc1C(=O)OCC(=O)NC(=O)NCC(C)C | inactive: > 76.9 µM |
| COC(=O)c1c(NC(=O)COC(=O)Cn2cnc3ccccc32)sc(C)c1C | inactive: > 76.9 µM |
| O=C(Cn1c(C2CC2)nc2ccccc2c1=O)Nc1ccc(Br)cc1 | inactive: > 76.9 µM |
| Cn1c(=O)n(C)c2cc(NS(=O)(=O)c3ccc4c(c3)CCCC4)ccc21 | inactive: > 76.9 µM |
| COCCCn1c(SCC(=O)Nc2ccc3c(c2)OCCO3)nnc1-c1ccoc1C | inactive: > 76.9 µM |
| COCCNC(=O)C(c1ccccc1)N(CCOC)C(=O)Cn1nnc2ccccc21 (stereo unspecified) | inactive: > 76.9 µM |
| CCOC(=O)C1CCCN(C(=O)CN2C(=O)C(CC)Oc3ccc(C)cc32)C1 (stereo unspecified) | inactive: > 76.9 µM |
| CCOC(=O)c1ccc(NC(=O)CN2CCN(c3ccccc3)CC2)cc1 | inactive: > 76.9 µM |
| CCC1CCCCN1C(=O)Nc1ccc(F)cc1 (stereo unspecified) | inactive: > 76.9 µM |
| COc1cccc(-n2nnc3c(=O)n(CC(=O)NC4CCCC4)cnc32)c1 | inactive: > 76.9 µM |
| CCCNC(=O)N1CCN(c2ncccn2)CC1 | inactive: > 76.9 µM |
| CC1CCN(C(c2cc3cc4c(cc3[nH]c2=O)OCO4)c2nnnn2CC2CCCO2)CC1 (stereo unspecified) | inactive: > 76.9 µM |
| O=C(Nc1ccc2c(c1)nc1n2CCOC1)c1ccccc1 | inactive: > 76.9 µM |
| O=C(c1ccc(COc2ccccc2Br)o1)N1CCCCCC1 | inactive |
| CC(=O)c1cccc(NS(=O)(=O)c2c(C)n[nH]c2C)c1 | inactive: > 76.9 µM |
| COc1ccc(CN2C(=O)c3cccnc3C2Nc2cc(Cl)ccc2OC)cc1 (stereo unspecified) | inactive: > 76.9 µM |
| COc1ccc(OC)c(-c2cc(C(=O)NCCCn3ccnc3)no2)c1 | inactive |
| O=C(Nc1ccccc1)c1ccc(F)c(S(=O)(=O)N2CCOCC2)c1 | inactive: > 76.9 µM |
| CCc1ccc2[nH]c(=O)c(C(c3nnnn3Cc3ccc(OC)cc3)N3CCOCC3)cc2c1 (stereo unspecified) | inactive: > 76.9 µM |
| N#Cc1cc2cc3c(cc2nc1N1CCOCC1)OCO3 | inactive: > 76.9 µM |

| Compound | Potency |
| --- | --- |
| CCOC(=O)c1ccc(N2C(=O)CC(Sc3nc(O)c(CC)c(=O)[nH]3)C2=O)cc1 (stereo unspecified) | inactive: > 76.9 µM |
| O=c1c2ccccc2nc(SCc2nnc(-c3ccccc3Br)o2)n1-c1ccccc1 | inactive: > 76.9 µM |
| Cc1ccc(-c2nnc(SCC(=O)N3CCCc4ccccc43)n2N)cc1 | inactive: > 76.9 µM |
| CC(NC(=O)c1cc2ccccc2o1)C(=O)O (stereo unspecified) | inactive: > 76.9 µM |
| COc1ccc(N2CCCCn3c2nc2c3c(=O)[nH]c(=O)n2C)cc1 | inactive: > 76.9 µM |
| Cc1ccc2c(CSc3nnc(C4CC4)n3N)cc(=O)oc2c1C | inactive: > 76.9 µM |
| CCOC(=O)c1cc(C(=O)OCC)c2cc(Br)ccc2n1 | inactive: > 76.9 µM |
| CCn1c(SCCOc2ccc(OC)cc2)nnc1C(CO)NC(=O)c1ccc(OC)cc1 (stereo unspecified) | inactive: > 76.9 µM |
| O=C(CSc1nnc(CNC(=O)c2c(F)cccc2Cl)o1)Nc1ccc2c(c1)OCCO2 | inactive: > 76.9 µM |
| OC(COCC1COc2ccccc2O1)CN1CCc2ccccc2C1 (stereo unspecified) | inactive: > 76.9 µM |
| Cn1c(=O)c2c(-c3ccccc3)n(CCCN3CCOCC3)cc2n(C)c1=O | inactive: > 76.9 µM |
| CCCC(=O)Nc1ccccc1N1CCN(C(=O)c2ccccc2)CC1 | inactive: > 76.9 µM |
| CC1Oc2ccccc2N(Cc2ccccc2F)C1=O (stereo unspecified) | inactive: > 76.9 µM |
| COc1ccc(OC)c(NC(=O)c2cc(S(=O)(=O)NCc3ccco3)ccc2F)c1 | active: 5.32 µM |
| NS(=O)(=O)c1ccc(CCNc2ncnc3sccc23)cc1 | inactive: > 76.9 µM |
| COc1ccccc1NC(=O)CN1CCN(CC(=O)Nc2ccc(OCc3ccccc3)cc2)CC1 | active: 10.2 µM |
| O=C(Nc1ccc(NC(=O)c2ccco2)nc1)c1cccnc1 | inactive: > 76.9 µM |
| CCOc1cc2c(cc1OCC)C(C(=O)O)C(c1cc(Br)c(O)c(OC)c1)N(C)C2=O (stereo unspecified) | inactive: > 76.9 µM |
| Cc1nn(-c2nc3ccccc3[nH]2)c(N)c1-c1ccccc1 | inactive: > 76.9 µM |
| O=C(Nc1ccc2c(c1)OCO2)c1c(Cl)nc2sccn12 | inactive: > 76.9 µM |
| CC1(C)C(c2ccccc2)=NC(c2ccc(F)cc2)N1O (stereo unspecified) | inactive: > 76.9 µM |
| Cc1ccc2c(c1)C(O)(CC(=O)c1cccnc1)C(=O)N2 (stereo unspecified) | inactive: > 76.9 µM |
| COc1ccc2c(c1)c(C(=O)CN1CCN(C(=O)c3ccco3)CC1)c(C)n2C | inactive: > 76.9 µM |

| Compound | Potency |
| --- | --- |
| CCOC(=O)C1CCN(CC(=O)Nc2c(C(=O)OC)[nH]c3cccc(C)c23)CC1 | inactive: > 76.9 µM |
| Cc1ccc(C2N(c3nccs3)C(=O)C3CCCN32)cc1 (stereo unspecified) | inactive: > 76.9 µM |
| CCOC(=O)c1cnc(-n2nc(C)cc2C)nc1NCCc1ccccc1 | inactive: > 76.9 µM |
| CSc1nc2ccc(S(=O)(=O)N3CCOCC3)cc2s1 | inactive: > 76.9 µM |
| Cc1nc2nc(C)c(CCC(=O)NC(C)c3ccc4c(c3)OCCO4)c(C)n2n1 (stereo unspecified) | inactive: > 76.9 µM |
| COc1ccccc1C1CC(c2ccc(C)cc2)Nc2ncnn21 (stereo unspecified) | inactive: > 76.9 µM |
| CN1CCN(/C=N/c2c(C#N)cnn2Cc2ccccc2)CC1 | inactive: > 76.9 µM |
| c1cc(Nc2ncnc3sccc23)cc(-c2nnc3n2CCCCC3)c1 | inactive: > 76.9 µM |
| COC(=O)c1ccc(NC(=O)C2CCCO2)cc1 (stereo unspecified) | inactive: > 76.9 µM |
| Nc1nnnn1/N=C/c1ccccc1OCc1ccc(Cl)cc1Cl | inactive: > 76.9 µM |
| COc1cccc(-n2c(COc3ccc(C)cc3)nnc2SCC(N)=O)c1 | inactive: > 76.9 µM |
| O=C1CCCC2=C1C1(CCCCC1)N=C(Nc1nc3ccccc3s1)N2 | inactive: > 76.9 µM |
| O=C(O)c1cc2ccc3ccccc3c2[nH]1 | inactive: > 76.9 µM |
| CC(=O)NC(=O)NC1OC(=O)C(Cl)=C1Cl (stereo unspecified) | inactive: > 76.9 µM |
| CCc1cc(=O)oc2cc(C)cc(OCc3nn[nH]n3)c12 | inactive: > 76.9 µM |
| CS(=O)(=O)c1ccc2nc(NC3(C(F)(F)F)N=C4SCCN4C3=O)sc2c1 (stereo unspecified) | inactive: > 76.9 µM |
| COc1ccc(NC(=O)CNc2cccc(C#N)c2)cc1Cl | inactive: > 76.9 µM |
| COc1ccc2c(c1)NC1(O)c3ccccc3C(=O)C21O (stereo unspecified) | inactive: > 76.9 µM |
| c1ccc(CSc2nnc(-c3ccco3)n2Cc2ccco2)cc1 | inactive: > 76.9 µM |
| CC(C)c1nnc(NC(=O)Cn2nc(-c3ccc4c(c3)OCCO4)ccc2=O)s1 | inactive |
| O=C(Nc1ccccc1)c1ccc(NCc2ccco2)c(S(=O)(=O)N2CCOCC2)c1 | inactive: > 76.9 µM |
| Cc1ccc(NC(=O)c2nnn(CC(=O)Nc3ccccc3)c2N)cc1C | inactive: > 76.9 µM |
| CCOC(=O)N1CCN(c2cc(C)c(C(C)=O)cc2F)CC1 | inactive: > 76.9 µM |

| Compound | Potency |
| --- | --- |
| Cc1ccc(-c2nc(-c3ccccn3)no2)cc1Cl | inactive: > 76.9 µM |
| O=C(CN1CCCN(S(=O)(=O)c2ccc(F)cc2)CC1)Nc1ccccc1Br | inactive: > 76.9 µM |
| CCc1nc(C)cn1S(=O)(=O)c1cc(Br)c(C)cc1OC | inactive: > 76.9 µM |
| CN1C(=O)CC(N2CCN(C(c3ccccc3)c3ccccc3)CC2)C1=O (stereo unspecified) | inactive: > 76.9 µM |
| c1ccc(-c2nn3c(C4COc5ccccc5O4)nnc3s2)cc1 (stereo unspecified) | inactive: > 76.9 µM |
| COc1cc(CNC2CCCC2)cc(OC)c1OC | inactive: > 76.9 µM |
| CC12CCC3(CO)COC(c4ccccc4O1)C2C3 (stereo unspecified) | inactive: > 76.9 µM |
| COc1ccc(S(=O)(=O)Nc2cc(C(C)C)c(O)cc2C)cc1 | inactive: > 76.9 µM |
| O=C(Nc1ccccc1)N(CCN1CCOCC1)Cc1cccc(Cl)c1 | inactive |
| CSc1nnc([C@H](C)NC(=O)OC(C)(C)C)o1 | inactive: > 76.9 µM |
| C(=C\c1ccccc1)/CSc1nnc(-c2cnccn2)n1Cc1ccco1 | inactive: > 76.9 µM |
| CC(CC(=O)O)NCC1COc2ccccc2O1 (stereo unspecified) | inactive: > 76.9 µM |
| O=C(Cn1ccccc1=O)c1cccs1 | inactive: > 76.9 µM |
| COc1ccc2c(c1)[nH]c1c(=O)n(CCc3cnc[nH]3)cnc12 | inactive: > 76.9 µM |
| O=C(CN(Cc1cccs1)C(=O)CN1C(=O)COc2ccccc21)NCc1ccco1 | inactive: > 76.9 µM |
| O=C1C(Cl)=C(NCCCN2CCOCC2)C(=O)N1CCc1ccccc1 | active: 11.3 µM |
| Cc1nc2ccc(C(C(F)(F)F)(C(F)(F)F)C(F)(F)F)cc2[nH]1 | inactive: > 76.9 µM |
| Nc1nc(SCc2nc3scc(-c4cccs4)c3c(=O)[nH]2)n[nH]1 | inactive: > 76.9 µM |
| COC(=O)c1ccccc1S(=O)(=O)N1CCC(c2nc3ccccc3o2)CC1 | inactive: > 76.9 µM |
| COC(=O)c1ccccc1NC(=O)c1cc(-c2ccc(OC)c(OC)c2)on1 | inactive: > 76.9 µM |
| COCCCN1C(=O)C(=O)/C(=C(/O)c2ccc(OC)cc2)C1c1ccc(O)c(OC)c1 (stereo unspecified) | inactive: > 76.9 µM |
| N#Cc1nc(Cc2cccc3ccccc23)oc1NCC1CCCO1 (stereo unspecified) | inactive |

From PubChem BioAssay AID360 (National Center for Advancing Translational Sciences (NCATS), 2006)
